Nine variants from the supplement of paper PMC12217912 can be followed below.

B1: TEV protease; numbered along this chain (parent)
chain: MGESLFKGPRDYNPISSSICHLTNESDGHTTSLYGIGFGPFIITNKHLFRRNNGTLVVQSLHGVFKVKDTTTLQQHLVDGRDMIIIRMPKDFPPFPQKLKFREPQREERICLVTTNFQTKSMSSMVSDTSCTFPSGDGIFWKHWIQTKDGQCGSPLVSTRDGFIVGIHSASNFTNTNNYFTSVPKNFMELLTNQEAQQWVSGWRLNADSVLWGGHKVFMVKPEEPFQPVKEATQL

The other results are listed elsewhere or left out. The full chains were built here from the parent and the listed change. Values near 0.05 are background.

Variants of B1 are the subject of this assay. The assay is described as follows: raw area under fraction-flipped curve 0-4 h after induction (AUC4h, not background-subtracted), DNA-recorder readout of cleavage of the substrate (dimensionless); higher = more cleavage of the substrate by the protease variant. Conditions: temperature: 34 °C; time window: 0-4 h after rhamnose induction. Here is the method: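 In vivo DNA recorder in E. coli TOP10(DE3) ΔrhaA at 34 °C. Each TEVp single-site mutant (parent TEVp 0) is paired with a single-site variant of the 7-mer TEVs (canonical ENLYFQ|S). The substrate sits between flexible linkers in a Bxb1-sfGFP-TEVs-SsrA fusion, so cleavage stabilises Bxb1 and speeds flipping of a recombination array, read by NGS. The value is the raw area under the fraction-flipped curve over 0-4 h after rhamnose induction (AUC4h), with ≥20 reads per time point. It is not background-subtracted; inactive controls average about 0.047.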
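Further: Bxb1 expression induced with 0.2% (w/v) L-rhamnose at OD600 near 0.5, cultures sampled hourly, flipped fraction per protease–substrate barcode pair counted by paired-end Illumina sequencing.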

Take MGESLFKGPRDYNPISSSICHLTNESDGHTTSLYGIGFGPFIITNKHLFRRNNGTLVVQSLHGVFKVKDTTTLQQHLVDGRDMIIIRMTKDFPPFPQKLKFREPQREERICLVTTNFQTKSMSSMVSDTSCTFPSGDGIFWKHWIQTKDGQCGSPLVSTRDGFIVGIHSASNFTNTNNYFTSVPKNFMELLTNQEAQQWVSGWRLNADSVLWGGHKVFMVKPEEPFQPVKEATQL [P89T]: the “area with substrate ENLYAQS” value worked out at 0.0712, the “area with substrate ENLYCQS” value was 0.0473, the “area with substrate ENLYEQS” value turned out to be 0.0486 and the “area with substrate ENLYGQS” value is 0.0699. For the same variant, the “area with substrate ENLYHQS” value stood at 0.0626, the “area with substrate ENLYLQS” value is 0.0674, the “area with substrate ENLYMQS” value was 0.0786 and the “area with substrate ENLYNQS” value amounted to 0.064. Further, the “area with substrate ENLYPQS” value came to 0.0627, the “area with substrate ENLYQQS” value is 0.0408, the “area with substrate ENLYRQS” value came out at 0.0713 and the “area with substrate ENLYSQS” value came out at 0.0645. Further, the “area with substrate ENLYVQS” value amounted to 0.0982.
Turning to MGESLFKGPRDYNPISSSICHLTNESDGHTTSLYGIGFGPFIITNKHLFRRNNGTLVVQSLHGVFKVKDTTTLQQHLVDGRDMIIIRMPKDFPPFPQKLKFREPVREERICLVTTNFQTKSMSSMVSDTSCTFPSGDGIFWKHWIQTKDGQCGSPLVSTRDGFIVGIHSASNFTNTNNYFTSVPKNFMELLTNQEAQQWVSGWRLNADSVLWGGHKVFMVKPEEPFQPVKEATQL [Q105V], the “area with substrate ENLYAQS” value amounted to 0.0689, the “area with substrate ENLYGQS” value amounted to 0.0635, the “area with substrate ENLYIQS” value turned out to be 0.133 and the “area with substrate ENLYMQS” value was 0.0908. Moreover, the “area with substrate ENLYNQS” value turned out to be 0.0952, the “area with substrate ENLYPQS” value was 0.0649, the “area with substrate ENLYRQS” value worked out at 0.0591 and the “area with substrate ENLYSQS” value came to 0.0895. Moreover, the “area with substrate ENLYVQS” value was found to be 0.156 and the “area with substrate ENLYYQS” value was 0.0688.
With MGESLFKGPRDYNPISSSICHLTNESDGHTTSLYGIGFGPFIITNKHLFRRNNGTLVVQSLHGVFKVKDTTTLQQHLVDGRDMIIPRMPKDFPPFPQKLKFREPQREERICLVTTNFQTKSMSSMVSDTSCTFPSGDGIFWKHWIQTKDGQCGSPLVSTRDGFIVGIHSASNFTNTNNYFTSVPKNFMELLTNQEAQQWVSGWRLNADSVLWGGHKVFMVKPEEPFQPVKEATQL [I86P], the “area with substrate ENLYAQS” value was 0.0364, the “area with substrate ENLYEQS” value came to 0.0399, the “area with substrate ENLYGQS” value was found to be 0.0434 and the “area with substrate ENLYHQS” value amounted to 0.0383. Also, the “area with substrate ENLYIQS” value came out at 0.0427, the “area with substrate ENLYLQS” value was determined as 0.0404, the “area with substrate ENLYMQS” value was 0.0485 and the “area with substrate ENLYNQS” value is 0.041. Also, the “area with substrate ENLYPQS” value came out at 0.0427, the “area with substrate ENLYSQS” value worked out at 0.0502, the “area with substrate ENLYVQS” value was 0.0302 and the “area with substrate ENLYYQS” value worked out at 0.04.
Consider MGESLFKGPRDYNPISSSICHLTNESDGHTTSLYGIGFGPFIITNKHLFRRNNGTLVVQSLHGVFKVKDTTTLQQHLVDGRDMIIMRMPKDFPPFPQKLKFREPQREERICLVTTNFQTKSMSSMVSDTSCTFPSGDGIFWKHWIQTKDGQCGSPLVSTRDGFIVGIHSASNFTNTNNYFTSVPKNFMELLTNQEAQQWVSGWRLNADSVLWGGHKVFMVKPEEPFQPVKEATQL [I86M], for which the “area with substrate ENLYAQS” value was 0.0893, the “area with substrate ENLYCQS” value came out at 0.0813, the “area with substrate ENLYDQS” value is 0.0565 and the “area with substrate ENLYEQS” value was found to be 0.0692. Further, the “area with substrate ENLYGQS” value turned out to be 0.0591, the “area with substrate ENLYHQS” value came to 0.067, the “area with substrate ENLYIQS” value is 0.129 and the “area with substrate ENLYMQS” value came out at 0.107. Also, the “area with substrate ENLYNQS” value is 0.0712, the “area with substrate ENLYPQS” value amounted to 0.0748, the “area with substrate ENLYRQS” value was 0.0513 and the “area with substrate ENLYSQS” value was found to be 0.0696. The “area with substrate ENLYTQS” value stood at 0.0697, the “area with substrate ENLYVQS” value is 0.115 and the “area with substrate ENLYWQS” value is 0.082.
As for MGESLFKGPRDYNPISSSICHLTNESDGHTTSLYGIGFGPFIITNKHLFRRNNGTLVVQSLHGVFKVKDTTTLQQHLVDGRDMIIIRMPKDFPPFPQKLKFFEPQREERICLVTTNFQTKSMSSMVSDTSCTFPSGDGIFWKHWIQTKDGQCGSPLVSTRDGFIVGIHSASNFTNTNNYFTSVPKNFMELLTNQEAQQWVSGWRLNADSVLWGGHKVFMVKPEEPFQPVKEATQL [R102F], the “area with substrate ENLYAQS” value turned out to be 0.021, the “area with substrate ENLYGQS” value is 0.0558, the “area with substrate ENLYKQS” value was 0.0218 and the “area with substrate ENLYNQS” value turned out to be 0.0637. Also, the “area with substrate ENLYPQS” value is 0.0862 and the “area with substrate ENLYSQS” value turned out to be 0.0432.
MGESLFKGPRDYNPISSSICHLTNESDGHTTSLYGIGFGPFIITNKHLFRRNNGTLVVQSLHGVFKVKDTTTLQQHLVDGRDMIIIRMPKDFPPFPQKLKFVEPQREERICLVTTNFQTKSMSSMVSDTSCTFPSGDGIFWKHWIQTKDGQCGSPLVSTRDGFIVGIHSASNFTNTNNYFTSVPKNFMELLTNQEAQQWVSGWRLNADSVLWGGHKVFMVKPEEPFQPVKEATQL [R102V]: the “area with substrate ENLYAQS” value worked out at 0.0494, the “area with substrate ENLYDQS” value was 0.0514, the “area with substrate ENLYEQS” value was 0.0389 and the “area with substrate ENLYGQS” value stood at 0.0626. Besides, the “area with substrate ENLYHQS” value is 0.0293, the “area with substrate ENLYIQS” value worked out at 0.0469, the “area with substrate ENLYKQS” value amounted to 0.0624 and the “area with substrate ENLYLQS” value is 0.0493. Also, the “area with substrate ENLYMQS” value was 0.0381, the “area with substrate ENLYNQS” value amounted to 0.0462, the “area with substrate ENLYPQS” value was 0.0737 and the “area with substrate ENLYRQS” value stood at 0.0536. Further, the “area with substrate ENLYSQS” value is 0.0493, the “area with substrate ENLYTQS” value stood at 0.0402, the “area with substrate ENLYWQS” value was 0.0354 and the “area with substrate ENLYYQS” value is 0.0659.
In the case of MGESLFKGPRDYNPISSSICHLTNESDGHTTSLYGIGFGPFIITNKHLFRRNNGTLVVQSLHGVFKVKDTTTLQQHLVDGRDMIIIRMPKDFPPFPQKLKFREPQCEERICLVTTNFQTKSMSSMVSDTSCTFPSGDGIFWKHWIQTKDGQCGSPLVSTRDGFIVGIHSASNFTNTNNYFTSVPKNFMELLTNQEAQQWVSGWRLNADSVLWGGHKVFMVKPEEPFQPVKEATQL [R106C], the “area with substrate ENLYAQS” value amounted to 0.072, the “area with substrate ENLYCQS” value came to 0.0901, the “area with substrate ENLYDQS” value stood at 0.06 and the “area with substrate ENLYEQS” value was determined as 0.109. Also, the “area with substrate ENLYHQS” value stood at 0.0686, the “area with substrate ENLYKQS” value came out at 0.0555, the “area with substrate ENLYMQS” value was 0.0899 and the “area with substrate ENLYNQS” value is 0.0794. Further, the “area with substrate ENLYQQS” value was 0.069, the “area with substrate ENLYRQS” value amounted to 0.0532 and the “area with substrate ENLYYQS” value is 0.0592.
As to MGESLFKGPRDYNPISSSICHLTNESDGHTTSLYGIGFGPFIITNKHLFRRNNGTLVVQSLHGVFKVKDTTTLQQHLVDGRDMIIIRMPKDFPPFPQKLKFREPQRDERICLVTTNFQTKSMSSMVSDTSCTFPSGDGIFWKHWIQTKDGQCGSPLVSTRDGFIVGIHSASNFTNTNNYFTSVPKNFMELLTNQEAQQWVSGWRLNADSVLWGGHKVFMVKPEEPFQPVKEATQL [E107D], the “area with substrate ENLYAQS” value is 0.0776, the “area with substrate ENLYCQS” value is 0.0848, the “area with substrate ENLYDQS” value is 0.0684 and the “area with substrate ENLYEQS” value was 0.0636. In addition, the “area with substrate ENLYGQS” value was determined as 0.0587, the “area with substrate ENLYHQS” value was 0.0689, the “area with substrate ENLYIQS” value turned out to be 0.0824 and the “area with substrate ENLYKQS” value stood at 0.0713. Moreover, the “area with substrate ENLYMQS” value turned out to be 0.0882, the “area with substrate ENLYNQS” value turned out to be 0.0758, the “area with substrate ENLYPQS” value worked out at 0.0751 and the “area with substrate ENLYRQS” value amounted to 0.0768. Further, the “area with substrate ENLYSQS” value amounted to 0.0779, the “area with substrate ENLYVQS” value worked out at 0.0717 and the “area with substrate ENLYWQS” value is 0.0757.
Turning to MGESLFKGPRDYNPISSSICHLTNESDGHTTSLYGIGFGPFIITNKHLFRRNNGTLVVQSLHGVFKVKDTTTLQQHLVDGRDMIIIRMPKDFPPFPMKLKFREPQREERICLVTTNFQTKSMSSMVSDTSCTFPSGDGIFWKHWIQTKDGQCGSPLVSTRDGFIVGIHSASNFTNTNNYFTSVPKNFMELLTNQEAQQWVSGWRLNADSVLWGGHKVFMVKPEEPFQPVKEATQL [Q97M], the “area with substrate ENLYAQS” value was determined as 0.0757, the “area with substrate ENLYDQS” value turned out to be 0.063, the “area with substrate ENLYEQS” value was 0.0651 and the “area with substrate ENLYGQS” value was found to be 0.0696. The “area with substrate ENLYHQS” value was determined as 0.0701, the “area with substrate ENLYIQS” value came out at 0.0999, the “area with substrate ENLYKQS” value stood at 0.0592 and the “area with substrate ENLYNQS” value was determined as 0.0709. The “area with substrate ENLYPQS” value turned out to be 0.0839, the “area with substrate ENLYQQS” value is 0.0716, the “area with substrate ENLYRQS” value worked out at 0.0647 and the “area with substrate ENLYSQS” value was 0.0711. Moreover, the “area with substrate ENLYTQS” value worked out at 0.0696, the “area with substrate ENLYVQS” value turned out to be 0.112 and the “area with substrate ENLYWQS” value was 0.07.
